# Reference: patent publication US20190144558A1
# Target: human CD117 on CD117 expressing cells (Kasumi-1 cells; primary human CD34+ bone marrow cells) (human), P10721
# Experiment: cell-based or functional assay
row,Binder,"AUC Kasumi-1 Killing (AUC hIgG1 - AUC MAC ID#); IgG pre-incubated with anti-human Fab-saporin, Celltiter Glo"
1,"Antibody 54 (antibody, human IgG1, kappa) heavy: QVQLVQSGAEVKKPGSSVKVSCKASGGTFSSYAISWVRQAPGQGLEWMGGIIPIFGTANYAQKFQGRVTITADESTSTAYMELSSLRSEDTAVYYCARGGLDTDEFDLWGRGTLVTVSS[sequence of human IgG1 constant region not given] light: DIQMTQSPSSLSASVGDRVTITCRASQSINSYLNWYQQKPGKAPKLLIYAASSLQSGVPSRFSGSGSGTDFTLTISSLQPEDFATYYCQQGVSDITFGGGTKVEIKRTVAAPSVFIFPPSDEQLKSGTASVVCLLNNFYPREAKVQWKVDNALQSGNSQESVTEQDSKDSTYSLSSTLTLSKADYEKHKVYACEVTHQGLSSPVTKSFNRGEC",155000
2,"Antibody 55 (antibody, human IgG1, kappa) heavy: QVQLVQSGAEVKKPGSSVKVSCKASGGTFRIYAISWVRQAPGQGLEWMGGIIPDFGVANYAQKFQGRVTITADESTSTAYMELSSLRSEDTAVYYCARGGLDTDEFDLWGRGTLVTVSS[sequence of human IgG1 constant region not given] light: DIQMTQSPSSLSASVGDRVTITCRASQSINSYLNWYQQKPGKAPKLLIYAASSLQSGVPSRFSGSGSGTDFTLTISSLQPEDFATYYCQQGVSDITFGGGTKVEIKRTVAAPSVFIFPPSDEQLKSGTASVVCLLNNFYPREAKVQWKVDNALQSGNSQESVTEQDSKDSTYSLSSTLTLSKADYEKHKVYACEVTHQGLSSPVTKSFNRGEC",226000
3,"Antibody 56 (antibody, human IgG1, kappa) heavy: QVQLVQSGAEVKKPGSSVKVSCKASGGTFSLYAISWVRQAPGQGLEWMGGIIPAFGTANYAQKFQGRVTITADESTSTAYMELSSLRSEDTAVYYCARGGLDTDEFDLWGRGTLVTVSS[sequence of human IgG1 constant region not given] light: DIQMTQSPSSLSASVGDRVTITCRASQSINSYLNWYQQKPGKAPKLLIYAASSLQSGVPSRFSGSGSGTDFTLTISSLQPEDFATYYCQQGVSDITFGGGTKVEIKRTVAAPSVFIFPPSDEQLKSGTASVVCLLNNFYPREAKVQWKVDNALQSGNSQESVTEQDSKDSTYSLSSTLTLSKADYEKHKVYACEVTHQGLSSPVTKSFNRGEC",193000
4,"Antibody 57 (antibody, human IgG1, kappa) heavy: QVQLVQSGAEVKKPGSSVKVSCKASGGTFSLYAISWVRQAPGQGLEWMGGIIPHFGLANYAQKFQGRVTITADESTSTAYMELSSLRSEDTAVYYCARGGLDTDEFDLWGRGTLVTVSS[sequence of human IgG1 constant region not given] light: DIQMTQSPSSLSASVGDRVTITCRASQSINSYLNWYQQKPGKAPKLLIYAASSLQSGVPSRFSGSGSGTDFTLTISSLQPEDFATYYCQQGVSDITFGGGTKVEIKRTVAAPSVFIFPPSDEQLKSGTASVVCLLNNFYPREAKVQWKVDNALQSGNSQESVTEQDSKDSTYSLSSTLTLSKADYEKHKVYACEVTHQGLSSPVTKSFNRGEC",157000
5,"Antibody 66 (antibody, human IgG1, kappa) heavy: EVQLVESGGGLVQPGGSLRLSCAASGFTFSDHYMDWVRQAPGKGLEWVGRTRNKASSYTTEYAASVKGRFTISRDDSKNSLYLQMNSLKTEDTAVYYCAREPKYWIDFDLWGRGTLVTVSS[sequence of human IgG1 constant region not given] light: [sequence of about 100 residues not given][sequence of about 120 residues not given]",135000
6,"Antibody 67 (antibody, human IgG1, kappa) heavy: EVQLVESGGGLVQPGGSLRLSCAASGFTFSDADMDWVRQAPGKGLEWVGRTRNKAGSYTTEYAASVKGRFTISRDDSKNSLYLQMNSLKTEDTAVYYCAREPKYWIDFDLWGRGTLVTVSS[sequence of human IgG1 constant region not given] light: [sequence of about 100 residues not given][sequence of about 120 residues not given]",156000
7,"Antibody 68 (antibody, human IgG1, kappa) heavy: EVQLVESGGGLVQPGRSLRLSCTASGFTFSDHDMNWVRQAPGKGLEWVGRTRNAAGSYTTEYAASVKGRFTISRDDSKNSLYLQMNSLKTEDTAVYYCAREPKYWIDFDLWGRGTLVTVSS[sequence of human IgG1 constant region not given] light: [sequence of about 100 residues not given][sequence of about 120 residues not given]",14400
8,"Antibody 69 (antibody, human IgG1, kappa) heavy: EVQLVESGGGLVQPGGSLRLSCAASGFTFVDHDMDWVRQAPGKGLEWVGRTRNKLGSYTTEYAASVKGRFTISRDDSKNSLYLQMNSLKTEDTAVYYCAREPKYWIDFDLWGRGTLVTVSS[sequence of human IgG1 constant region not given] light: [sequence of about 100 residues not given][sequence of about 120 residues not given]",40000
